Among the data in PubChem BioAssay AID360 (National Center for Advancing Translational Sciences (NCATS), 2006) are Potency values, retold here.

Among all 48,000 compounds or so, about 550 (1.1%) were called active. Roughly 4% stayed inconclusive and do not appear here. No stated cut-off is given here; in the data, active means potency below about 15 µM; inconclusive means mostly about 16 µM to 33 µM; inactive means weaker than that. The list shows a part of the results.
Potency means the concentration at half of the fitted maximal effect.

For this experiment, the target named is Lysosomal acid glucosylceramidase (Homo sapiens) (UniProt P04062). As to the kind of experiment: Glucocerebrosidase.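 Further: the screen sought inhibitors.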 The note with it: purified enzyme, resorufin glucoside fluorescence (screen aimed at inhibitors), 20 min. The method, boiled down: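 Wild-type enzyme at 0.2 nM final in 50mM citric acid/KH2PO4, 10mM sodium taurocholate, 0.01% tween-20, pH 5.9, with resorufin beta-D-glucopyranoside at 30 uM final. Compounds titrated, 20 min at RT, red fluorescence read; AC50 from titration.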
Sequence of UniProt P04062 (P04062 whole entry, looked up): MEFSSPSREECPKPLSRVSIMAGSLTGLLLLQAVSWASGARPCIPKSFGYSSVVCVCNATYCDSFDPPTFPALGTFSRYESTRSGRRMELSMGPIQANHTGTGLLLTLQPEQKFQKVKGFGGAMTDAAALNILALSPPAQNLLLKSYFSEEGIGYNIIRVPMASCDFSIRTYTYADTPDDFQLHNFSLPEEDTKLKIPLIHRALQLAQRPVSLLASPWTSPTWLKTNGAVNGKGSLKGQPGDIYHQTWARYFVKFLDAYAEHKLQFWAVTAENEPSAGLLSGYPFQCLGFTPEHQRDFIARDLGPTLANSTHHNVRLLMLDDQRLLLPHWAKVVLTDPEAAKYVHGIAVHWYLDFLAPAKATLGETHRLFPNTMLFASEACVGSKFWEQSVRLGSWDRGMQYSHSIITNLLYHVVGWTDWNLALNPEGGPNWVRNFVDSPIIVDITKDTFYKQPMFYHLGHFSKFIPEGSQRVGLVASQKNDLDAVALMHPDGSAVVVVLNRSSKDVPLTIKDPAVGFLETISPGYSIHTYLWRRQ
For the molecule `CCOC(=O)N1CCN(C(=O)c2ccc3c(c2)ncn3C2CCCC2)CC1`, the Potency was inactive: > 76.9 µM.

With `COc1ccc(CCNC(=O)c2nnc(Cc3c(F)cccc3Cl)o2)cc1OC`, the Potency is inactive: > 76.9 µM.

In the case of `O=C(NCCN1CCCCC1)c1cc2ccccc2[nH]1`, the Potency is inactive: > 76.9 µM.

Regarding `CCCCCOc1ccc(C(=O)NC(C(=O)O)C(C)C)cc1` (stereo not drawn), the Potency was inactive: > 76.9 µM.

With `Cc1cccc(C(=O)NCCN2CCN(c3ccccc3)CC2)c1`, the Potency was inactive: > 76.9 µM.

`Cc1cc2c(C)nc(-c3ccccc3)nc2o1`: the Potency was inactive: > 76.9 µM.

As to `COc1ccc(CC(=O)N2CCN(c3ccccn3)CC2)cc1OC`, the Potency was inactive: > 76.9 µM.

As to `COc1cc(Cl)ccc1NC(=O)COc1ccccc1C(=O)N1CCN(c2ccc(O)cc2)CC1`, the Potency result is “inactive”.

As to `CCNS(=O)(=O)c1ccc(NC(=O)Nc2cccc(C(F)(F)F)c2)cc1`, the Potency was inactive: > 76.9 µM.

On to `Cc1cccc(C)c1NC(=O)C(NC=O)c1ccc(N(C)C)cc1` (stereo not drawn), for which the Potency was inactive: > 76.9 µM.

Consider `CCN(CC)C(=O)c1cc2cc(Br)ccc2oc1=O`, for which the Potency is inactive: > 76.9 µM.

Take `CCC(=O)Nc1ccc2c(c1)C(=O)N(C1CCCCC1)C2=O`: the Potency is inactive: > 76.9 µM.

Take `CCC(=O)NC(C)c1nc2ccccc2n1C` (stereo not drawn): the Potency is inactive: > 76.9 µM.

As for `COc1cc(C)nc(NC(=O)COc2ccc(Cl)cc2C)n1`, the Potency is inactive: > 76.9 µM.

On to `Cc1cc(C(=O)Cn2nnc3ccccc3c2=O)c(C)n1-c1c(C)n(C)n(-c2ccccc2)c1=O`, for which the Potency was inactive: > 76.9 µM.

In the case of `COC(=O)Cc1cnc(NC(=O)C2C3CCC(C3)C2C(=O)O)s1` (stereo not drawn), the Potency was inactive: > 76.9 µM.

`Fc1ccccc1OCCSc1nnnn1-c1ccccc1`: the Potency is inactive: > 76.9 µM.

For `CC1CCN(C(=O)c2cccc(S(=O)(=O)N3CCCCC3)c2)CC1`, the Potency was inactive: > 76.9 µM.

As to `N#CC(C(=O)C12CC3CC(CC(C3)C1)C2)c1nc2ccccc2[nH]1` (stereo not drawn), the Potency was inactive: > 76.9 µM.

Consider `CC(C)N(Cc1nc(-c2ccccc2)no1)C(=O)CN1C(=O)c2ccccc2C1=O`, for which the Potency is inactive: > 76.9 µM.

Regarding `CCCC1CCC(C(=O)Nn2c(C)nc3ccccc3c2=O)CC1` (stereo not drawn), the Potency is inactive: > 76.9 µM.

Regarding `O=C1CC2(CCCCC2)Oc2ccc(O)cc21`, the Potency was inactive: > 76.9 µM.

In the case of `O=C(O)CC(c1ccc(Cl)cc1)n1cccc1` (stereo not drawn), the Potency was inactive: > 76.9 µM.

Turning to `CCOC(=O)Cc1csc(NS(=O)(=O)c2ccc3c4c(cccc24)C(=O)N3CC)n1`, the Potency was inactive: > 76.9 µM.

As for `CC(C)(C)NC(=O)CSc1nnc(-c2ccncc2)n1Cc1ccccc1`, the Potency is inactive: > 76.9 µM.

`CCOC(=O)N1CCN(C(=O)c2ccccc2NC(=O)c2ccc(OC)cc2)CC1`: the Potency is inactive: > 76.9 µM.

As for `Cc1ccc(CCNC(=O)c2nnn(-c3cc(C)cc(C)c3)c2N)cc1`, the Potency was inactive: > 76.9 µM.

In the case of `CC(=O)c1cc(C)ccc1OC(=O)c1cccnc1`, the Potency is inactive: > 76.9 µM.

For `CCN1C(=O)c2c(C)nc3ccccc3c2C1=O`, the Potency is inactive: > 76.9 µM.

With `COc1ccc(Nc2ncnc3c2cnn3Cc2ccccc2)cc1`, the Potency is inactive: > 76.9 µM.

Turning to `CCOC(=O)c1cnc(SCC(=O)Nc2ccc3c(c2)OCCO3)nc1N`, the Potency was inactive: > 76.9 µM.

On to `CCN(CCNC(=O)C1CC(=O)N(CCc2ccccc2)C1)c1ccccc1` (stereo not drawn), for which the Potency was inactive: > 76.9 µM.

`O=C(c1cccc(COCC(F)(F)C(F)F)c1)N1CCN(c2ccccc2)CC1`: the Potency is inactive: > 76.9 µM.

For `COc1cc(Cl)cc(C#N)c1OCC(=O)O`, the Potency was inactive: > 76.9 µM.

As to `CCOC(=O)c1[nH]cnc1C(=O)Nc1ccncc1`, the Potency was inactive: > 76.9 µM.

Consider `Cc1ccc(S(=O)(=O)N2CCCC2C(=O)N2CCCCCC2)cc1` (stereo not drawn), for which the Potency was inactive: > 76.9 µM.

Take `CCCOc1ccc(C2C(C#N)=C(N)Oc3nc[nH]c(=O)c32)cc1OC` (stereo not drawn): the Potency was inactive: > 76.9 µM.

With `CCOC(=O)C1CCN(C(=O)Nc2ccc3nc(C)c(C)nc3c2)CC1`, the Potency entry is “inactive”.

With `CN(C)S(=O)(=O)N1CCCN(S(=O)(=O)N(C)C)CC1`, the Potency is inactive: > 76.9 µM.

As to `Cc1ccc2nsnc2c1S(=O)(=O)NCc1cccnc1`, the Potency was inactive: > 76.9 µM.

As to `COc1cccc(OCC(O)CN2CCN(CCO)CC2)c1` (stereo not drawn), the Potency is inactive: > 76.9 µM.

With `CCn1nc(C(=O)OCC(=O)NCCN2C(=O)CSC2=O)c2ccccc2c1=O`, the Potency was inactive: > 76.9 µM.

On to `Cc1cc(Cl)c(S(=O)(=O)Nc2ccon2)cc1OCC(=O)NC1CCCCC1`, for which the Potency is inactive: > 76.9 µM.

For `Cc1[nH]nc2c1C(Cc1ccccc1)C(C#N)=C(N)O2` (stereo not drawn), the Potency is inactive: > 76.9 µM.

Take `O=c1c2cccnc2[nH]c(=S)n1CCCN1CCN(c2ccc(F)cc2)CC1`: the Potency is inactive: > 76.9 µM.

For the molecule `COc1ccc(C(C)=O)cc1COC(=O)Cc1n[nH]c(=O)c2ccccc12`, the Potency is inactive: > 76.9 µM.

Consider `N#Cc1nc(Cc2ccccc2)oc1N1CCN(c2ccccc2)CC1`, for which the Potency was inactive: > 76.9 µM.

`CCOC(=O)CSc1nnc(Cc2ccccc2)n1Cc1ccco1`: the Potency is inactive: > 76.9 µM.

`Cc1[nH]nc(-c2ccc(O)cc2O)c1-c1ccc(Cl)cc1`: the Potency was inactive: > 76.9 µM.

For `CCOC(=O)C1CCN(C(=O)COc2ccc(S(=O)(=O)NC(C)C)cc2Cl)CC1`, the Potency was inactive: > 76.9 µM.

Regarding `CCc1noc(C)c1C(=O)Nc1ncc(C)s1`, the Potency was inactive: > 76.9 µM.

As for `CCN(Cc1nc2cc(OC)c(OC)cc2c(=O)[nH]1)C(=O)c1ccc(S(=O)(=O)N(C)C)cc1`, the Potency was inactive: > 76.9 µM.

Regarding `CC(=O)N1CCc2cc(S(=O)(=O)NCCC3=CCCCC3)ccc21`, the Potency is inactive: > 76.9 µM.

Consider `CCOC(=O)C1CCN(C(=O)C2CCN(S(=O)(=O)c3c(C)noc3C)CC2)CC1`, for which the Potency was inactive: > 76.9 µM.

With `CCOC(=O)Cc1nnc(NC(=O)CSc2ccccc2)s1`, the Potency was inactive: > 76.9 µM.

`Cc1ccc(NC(=O)COC(=O)C2CCC(=O)N2)c(S(=O)(=O)N2CCOCC2)c1` (stereo not drawn): the Potency is inactive: > 76.9 µM.

`O=C(NCc1ccccc1)N1CCC(c2nc3ccccc3[nH]2)CC1`: the Potency is inactive: > 76.9 µM.

As for `Cn1c(=O)c2c(-c3ccccc3)n3c4ccccc4ncc3c2n(C)c1=O`, the Potency was inactive: > 76.9 µM.
